# Test results as given in the supplement of paper PMC12230231.
# Test system: SIVsab (simian immunodeficiency virus of sabaeus monkeys), single-cycle GFP reporter, in CRFK cells
# Assay: enrichment among uninfected cells over input (fold); higher = stronger restriction
# Details: library: human / rhesus combinations
# Description: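 Pools of CRFK cells expressing variants of the TRIM5α v1 loop were challenged with the single-cycle reporter, sorted by GFP and sequenced; mean of two replicates.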
row,Sequence,enrichment
1,"MASGILVNVKEEVTCPICLELLTQPLSLDCGHSFCQACLTANHKKSMLDKGESSCPVCRISYQPENIRPNRHVANIVEKLREVKLSPEGQKVDHCARHGEKLLLFCQEDGKVICWLCERSQEHRGHHTFLTEEVAREYQVKLQAALEMLRQKQQEAEELEADIREEKASWKTQIQYDKTNVLADFEQLRDILDWEESNELQNLEKEEEDILKSLTNSETEMVQQTQSLRELISDLEHRLQGSVMELLQGVDGVIKRTENVTLKKPETFPKNQRRVFRAPDLKGMLEVFRELTDVRRYWVDVTVAPNNISCAVISEDKRQVSSPKPQIIYGARGTLFTFPSFTNFNYCTGILGSQSITSGKHYWEVDVSKKTAWILGVCAGFQPDAMCNIEKNENYQPKYGYWVIGLEEGVKCSAFQDSSFHTPSVPFIVPLSVIICPDRVGVFLDYEACTVSFFNITNHGFLIYKFSHCSFSQPVFPYLNPRKCGVPMTLCSPSS [human TRIM5α, 330-340 = GARGTLFTFPSFT]",0.4 ± 0.089
2,"MASGILVNVKEEVTCPICLELLTQPLSLDCGHSFCQACLTANHKKSMLDKGESSCPVCRISYQPENIRPNRHVANIVEKLREVKLSPEGQKVDHCARHGEKLLLFCQEDGKVICWLCERSQEHRGHHTFLTEEVAREYQVKLQAALEMLRQKQQEAEELEADIREEKASWKTQIQYDKTNVLADFEQLRDILDWEESNELQNLEKEEEDILKSLTNSETEMVQQTQSLRELISDLEHRLQGSVMELLQGVDGVIKRTENVTLKKPETFPKNQRRVFRAPDLKGMLEVFRELTDVRRYWVDVTVAPNNISCAVISEDKRQVSSPKPQIIYQARGTRYTFPSLTNFNYCTGILGSQSITSGKHYWEVDVSKKTAWILGVCAGFQPDAMCNIEKNENYQPKYGYWVIGLEEGVKCSAFQDSSFHTPSVPFIVPLSVIICPDRVGVFLDYEACTVSFFNITNHGFLIYKFSHCSFSQPVFPYLNPRKCGVPMTLCSPSS [human TRIM5α, 330-340 = QARGTRYTFPSLT]",0.251 ± 0.004
3,"MASGILVNVKEEVTCPICLELLTQPLSLDCGHSFCQACLTANHKKSMLDKGESSCPVCRISYQPENIRPNRHVANIVEKLREVKLSPEGQKVDHCARHGEKLLLFCQEDGKVICWLCERSQEHRGHHTFLTEEVAREYQVKLQAALEMLRQKQQEAEELEADIREEKASWKTQIQYDKTNVLADFEQLRDILDWEESNELQNLEKEEEDILKSLTNSETEMVQQTQSLRELISDLEHRLQGSVMELLQGVDGVIKRTENVTLKKPETFPKNQRRVFRAPDLKGMLEVFRELTDVRRYWVDVTVAPNNISCAVISEDKRQVSSPKPQIIYQAPGTLFTFQTFVNFNYCTGILGSQSITSGKHYWEVDVSKKTAWILGVCAGFQPDAMCNIEKNENYQPKYGYWVIGLEEGVKCSAFQDSSFHTPSVPFIVPLSVIICPDRVGVFLDYEACTVSFFNITNHGFLIYKFSHCSFSQPVFPYLNPRKCGVPMTLCSPSS [human TRIM5α, 330-340 = QAPGTLFTFQTFV]",0.182 ± 0.03
4,"MASGILVNVKEEVTCPICLELLTQPLSLDCGHSFCQACLTANHKKSMLDKGESSCPVCRISYQPENIRPNRHVANIVEKLREVKLSPEGQKVDHCARHGEKLLLFCQEDGKVICWLCERSQEHRGHHTFLTEEVAREYQVKLQAALEMLRQKQQEAEELEADIREEKASWKTQIQYDKTNVLADFEQLRDILDWEESNELQNLEKEEEDILKSLTNSETEMVQQTQSLRELISDLEHRLQGSVMELLQGVDGVIKRTENVTLKKPETFPKNQRRVFRAPDLKGMLEVFRELTDVRRYWVDVTVAPNNISCAVISEDKRQVSSPKPQIIYGARGTRYTFPSLVNFNYCTGILGSQSITSGKHYWEVDVSKKTAWILGVCAGFQPDAMCNIEKNENYQPKYGYWVIGLEEGVKCSAFQDSSFHTPSVPFIVPLSVIICPDRVGVFLDYEACTVSFFNITNHGFLIYKFSHCSFSQPVFPYLNPRKCGVPMTLCSPSS [human TRIM5α, 330-340 = GARGTRYTFPSLV]",0.164 ± 0.13
5,"MASGILVNVKEEVTCPICLELLTQPLSLDCGHSFCQACLTANHKKSMLDKGESSCPVCRISYQPENIRPNRHVANIVEKLREVKLSPEGQKVDHCARHGEKLLLFCQEDGKVICWLCERSQEHRGHHTFLTEEVAREYQVKLQAALEMLRQKQQEAEELEADIREEKASWKTQIQYDKTNVLADFEQLRDILDWEESNELQNLEKEEEDILKSLTNSETEMVQQTQSLRELISDLEHRLQGSVMELLQGVDGVIKRTENVTLKKPETFPKNQRRVFRAPDLKGMLEVFRELTDVRRYWVDVTVAPNNISCAVISEDKRQVSSPKPQIIYQARGTRFPSLVNFNYCTGILGSQSITSGKHYWEVDVSKKTAWILGVCAGFQPDAMCNIEKNENYQPKYGYWVIGLEEGVKCSAFQDSSFHTPSVPFIVPLSVIICPDRVGVFLDYEACTVSFFNITNHGFLIYKFSHCSFSQPVFPYLNPRKCGVPMTLCSPSS [human TRIM5α, 330-340 = QARGTRFPSLV]",0.207 ± 0.1
6,"MASGILVNVKEEVTCPICLELLTQPLSLDCGHSFCQACLTANHKKSMLDKGESSCPVCRISYQPENIRPNRHVANIVEKLREVKLSPEGQKVDHCARHGEKLLLFCQEDGKVICWLCERSQEHRGHHTFLTEEVAREYQVKLQAALEMLRQKQQEAEELEADIREEKASWKTQIQYDKTNVLADFEQLRDILDWEESNELQNLEKEEEDILKSLTNSETEMVQQTQSLRELISDLEHRLQGSVMELLQGVDGVIKRTENVTLKKPETFPKNQRRVFRAPDLKGMLEVFRELTDVRRYWVDVTVAPNNISCAVISEDKRQVSSPKPQIIYGAPGTLFPSLVNFNYCTGILGSQSITSGKHYWEVDVSKKTAWILGVCAGFQPDAMCNIEKNENYQPKYGYWVIGLEEGVKCSAFQDSSFHTPSVPFIVPLSVIICPDRVGVFLDYEACTVSFFNITNHGFLIYKFSHCSFSQPVFPYLNPRKCGVPMTLCSPSS [human TRIM5α, 330-340 = GAPGTLFPSLV]",0.00706 ± 0.001

# Same assay, conditions: library: insertions and deletions
row,Sequence,enrichment
1,"MASGILVNVKEEVTCPICLELLTQPLSLDCGHSFCQACLTANHKKSMLDKGESSCPVCRISYQPENIRPNRHVANIVEKLREVKLSPEGQKVDHCARHGEKLLLFCQEDGKVICWLCERSQEHRGHHTFLTEEVAREYQVKLQAALEMLRQKQQEAEELEADIREEKASWKTQIQYDKTNVLADFEQLRDILDWEESNELQNLEKEEEDILKSLTNSETEMVQQTQSLRELISDLEHRLQGSVMELLQGVDGVIKRTENVTLKKPETFPKNQRRVFRAPDLKGMLEVFRELTDVRRYWVDVTVAPNNISCAVISEDKRQVSSPKPQIIYGARGTRYQTFVNFNFNYCTGILGSQSITSGKHYWEVDVSKKTAWILGVCAGFQPDAMCNIEKNENYQPKYGYWVIGLEEGVKCSAFQDSSFHTPSVPFIVPLSVIICPDRVGVFLDYEACTVSFFNITNHGFLIYKFSHCSFSQPVFPYLNPRKCGVPMTLCSPSS [human TRIM5α, 2-codon duplication at 342]",0.163 ± 0.16
2,"MASGILVNVKEEVTCPICLELLTQPLSLDCGHSFCQACLTANHKKSMLDKGESSCPVCRISYQPENIRPNRHVANIVEKLREVKLSPEGQKVDHCARHGEKLLLFCQEDGKVICWLCERSQEHRGHHTFLTEEVAREYQVKLQAALEMLRQKQQEAEELEADIREEKASWKTQIQYDKTNVLADFEQLRDILDWEESNELQNLEKEEEDILKSLTNSETEMVQQTQSLRELISDLEHRLQGSVMELLQGVDGVIKRTENVTLKKPETFPKNQRRVFRAPDLKGMLEVFRELTDVRRYWVDVTVAPNNISCAVISEDKRQVSSPKPQIIYGARGTVNFNYCTGILGSQSITSGKHYWEVDVSKKTAWILGVCAGFQPDAMCNIEKNENYQPKYGYWVIGLEEGVKCSAFQDSSFHTPSVPFIVPLSVIICPDRVGVFLDYEACTVSFFNITNHGFLIYKFSHCSFSQPVFPYLNPRKCGVPMTLCSPSS [human TRIM5α, 5-codon deletion at 335]",0.91 ± 0.77
3,"MASGILVNVKEEVTCPICLELLTQPLSLDCGHSFCQACLTANHKKSMLDKGESSCPVCRISYQPENIRPNRHVANIVEKLREVKLSPEGQKVDHCARHGEKLLLFCQEDGKVICWLCERSQEHRGHHTFLTEEVAREYQVKLQAALEMLRQKQQEAEELEADIREEKASWKTQIQYDKTNVLADFEQLRDILDWEESNELQNLEKEEEDILKSLTNSETEMVQQTQSLRELISDLEHRLQGSVMELLQGVDGVIKRTENVTLKKPETFPKNQRRVFRAPDLKGMLEVFRELTDVRRYWVDVTVAPNNISCAVISEDKRQVSSPKPQIIYGARGTRYQTQTFVNFNYCTGILGSQSITSGKHYWEVDVSKKTAWILGVCAGFQPDAMCNIEKNENYQPKYGYWVIGLEEGVKCSAFQDSSFHTPSVPFIVPLSVIICPDRVGVFLDYEACTVSFFNITNHGFLIYKFSHCSFSQPVFPYLNPRKCGVPMTLCSPSS [human TRIM5α, 2-codon duplication at 337]",0.403 ± 0.08
4,"MASGILVNVKEEVTCPICLELLTQPLSLDCGHSFCQACLTANHKKSMLDKGESSCPVCRISYQPENIRPNRHVANIVEKLREVKLSPEGQKVDHCARHGEKLLLFCQEDGKVICWLCERSQEHRGHHTFLTEEVAREYQVKLQAALEMLRQKQQEAEELEADIREEKASWKTQIQYDKTNVLADFEQLRDILDWEESNELQNLEKEEEDILKSLTNSETEMVQQTQSLRELISDLEHRLQGSVMELLQGVDGVIKRTENVTLKKPETFPKNQRRVFRAPDLKGMLEVFRELTDVRRYWVDVTVAPNNISCAVISEDKRQVSSPKPQIIYGARGTRYQTFVNFNYCTGILNFNYCTGILGSQSITSGKHYWEVDVSKKTAWILGVCAGFQPDAMCNIEKNENYQPKYGYWVIGLEEGVKCSAFQDSSFHTPSVPFIVPLSVIICPDRVGVFLDYEACTVSFFNITNHGFLIYKFSHCSFSQPVFPYLNPRKCGVPMTLCSPSS [human TRIM5α, 9-codon duplication at 341]",0.588 ± 0.73
5,"MASGILVNVKEEVTCPICLELLTQPLSLDCGHSFCQACLTANHKKSMLDKGESSCPVCRISYQPENIRPNRHVANIVEKLREVKLSPEGQKVDHCARHGEKLLLFCQEDGKVICWLCERSQEHRGHHTFLTEEVAREYQVKLQAALEMLRQKQQEAEELEADIREEKASWKTQIQYDKTNVLADFEQLRDILDWEESNELQNLEKEEEDILKSLTNSETEMVQQTQSLRELISDLEHRLQGSVMELLQGVDGVIKRTENVTLKKPETFPKNQRRVFRAPDLKGMLEVFRELTDVRRYWVDVTVAPNNISCAVISEDKRQVSSPKKPQIIYGARGTRYQTFVNFNYCTGILGSQSITSGKHYWEVDVSKKTAWILGVCAGFQPDAMCNIEKNENYQPKYGYWVIGLEEGVKCSAFQDSSFHTPSVPFIVPLSVIICPDRVGVFLDYEACTVSFFNITNHGFLIYKFSHCSFSQPVFPYLNPRKCGVPMTLCSPSS [human TRIM5α, 1-codon duplication at 324]",0.523 ± 0.39
6,"MASGILVNVKEEVTCPICLELLTQPLSLDCGHSFCQACLTANHKKSMLDKGESSCPVCRISYQPENIRPNRHVANIVEKLREVKLSPEGQKVDHCARHGEKLLLFCQEDGKVICWLCERSQEHRGHHTFLTEEVAREYQVKLQAALEMLRQKQQEAEELEADIREEKASWKTQIQYDKTNVLADFEQLRDILDWEESNELQNLEKEEEDILKSLTNSETEMVQQTQSLRELISDLEHRLQGSVMELLQGVDGVIKRTENVTLKKPETFPKNQRRVFRAPDLKGMLEVFRELTDVRRYWVDVTVAPNNISCAVISEDKRQVSSPKPQIIYGARGARGTRYQTFVNFNYCTGILGSQSITSGKHYWEVDVSKKTAWILGVCAGFQPDAMCNIEKNENYQPKYGYWVIGLEEGVKCSAFQDSSFHTPSVPFIVPLSVIICPDRVGVFLDYEACTVSFFNITNHGFLIYKFSHCSFSQPVFPYLNPRKCGVPMTLCSPSS [human TRIM5α, 3-codon duplication at 331]",0.378 ± 0.24

# ± gives the standard deviation of the averaged measurements. Restriction of a single-cycle SIVsab GFP reporter by TRIM5α v1-loop variants in CRFK cells. Human variants: read share among cells still uninfected after two challenges over input, higher = gained restriction. Rhesus variants: share among infected cells over input, higher = lost restriction. Reporter dose not given per row. No active / inactive call per row; the paper calls a change when both replicates lie above its controls (mean + 2 SD of stop or wild-type variants, or the top frameshift score). Residues outside the varied loop are taken from Swiss-Prot. The paper reads the human single-substitution scores as noise; they and the rhesus combinations repeat poorly (rank correlation 0.3 to 0.4), indel scores repeat only for the top variants, rhesus substitutions well (0.9).
